Experimental data published in US7259004B1, “Endophytic streptomycetes from higher plants with biological activity” (Montana State University, priority 2002, dated 2007).
Like-named read-outs stand apart in the source and are kept apart here.

Columns and labels:
[1] = tested on: RNA synthesis in Bacillus subtilis; assay: macromolecular synthesis whole cell assay, [3H]uridine incorporation; assay type: cell-based; settings: for % [3H]uridine (RNA synthesis) incorporation of that of the untreated culture: 1×MIC
[2] = tested on: Streptococcus pneumoniae 49619; assay: microbroth dilution MIC; assay type: cell-based; settings: Table 15
S. epidermis 12228 = assay: microbroth dilution MIC; assay type: cell-based, Staphylococcus epidermidis; settings: Table 15
[3] = tested on: Enterococcus faecalis ATCC 51299 (VRE); assay: microbroth dilution MIC; assay type: cell-based; settings: Table 15
[4] = tested on: Staphylococcus aureus GISA, ATCC 700787; assay: microbroth dilution MIC; assay type: cell-based; settings: Table 15
[5] = tested on: Streptococcus pneumoniae ATCC 70674; assay: microbroth dilution MIC; assay type: cell-based; settings: Table 15
B. subtilis 1A757 = assay type: cell-based, Bacillus subtilis
[6] = tested on: Shigella dysenteriae ATCC 11835; assay: microbroth dilution MIC; assay type: cell-based; settings: Table 15
[7] = tested on: Cell wall synthesis in Bacillus subtilis; assay: macromolecular synthesis whole cell assay, [3H]N-acetyl glucosamine incorporation; assay type: cell-based; settings: for % [3H]N-acetyl glucosamine (Cell wall synthesis) incorporation of that of the untreated culture: 1×MIC
E. faecalis 29212 = assay: microbroth dilution MIC; assay type: cell-based, Enterococcus faecalis; settings: Table 15
[8] = tested on: Listeria monocytogenes 19114; assay: microbroth dilution MIC; assay type: cell-based; settings: Table 15
E. faecium 49624 = assay: microbroth dilution MIC; assay type: cell-based, Enterococcus faecium; settings: Table 15
[9] = tested on: Protein synthesis in Bacillus subtilis; assay: macromolecular synthesis whole cell assay, [3H]amino acid mixture incorporation; assay type: cell-based; settings: for % [3H]amino acid mixture (Protein synthesis) incorporation of that of the untreated culture: 1×MIC
[10] = tested on: Human Primary Mammary Epithelial HMEC; assay: CellTiter 96 Aqueous Non-Radioactive Cell Proliferation Assay; assay type: cell-based; settings: Table 12
Description: (§1) The munumbicins were then tested against three human cancer cell lines (ATCC) and human primary mammary epithelial cells (HMECs) (Clonetics; Biowhittaker, Walkersville, Md.) using a CellTiter 96® Aqueous Non-Radioactive Cell Proliferation Assay kit from Promega (Madison, Wis.). The cell lines were A-549 (lung epithelial carcinoma, ATCC CCL-185), ME-180 (cervical epithelial epidermoid carcinoma, ATCC HTB-33), and BT-20 (breast epithelial cancer, ATCC HTB-19), and were grown in the media recommended by ATCC. The primary mammary cells were cultured as recommended by the manufacturer in mammary epithelial cell growth media (MEGM®). […] After seeding, the cells were incubated for five hours at 37° C. before addition of the munumbicins. Two-fold serial dilutions of the munumbicins were made in the culture medium, and a volume equal to that of the seeded cells for each dilution was added to three wells of cells. Each plate also contained some wells with cells plus medium only and some wells with medium only. […] The A-549 and ME-180 cells were incubated for 48 hours. […] The plates were incubated at 37° C. for one to four hours, and the OD490 was determined. The OD reading of all wells was corrected for background by subtracting the reading of wells containing medium only. […] Kakadumycin A was tested against three human cancer cell lines (ATCC) and human primary mammary epithelial cells using the procedure described above for the munumbicins. Kadadumycin B was tested against one human cancer cell line.

[11] = tested on: Human Cervical Cancer Epithelial ME180; assay: as above; assay type: cell-based; settings: Table 12
Description: as §1

[12] = tested on: Human Lung Cancer Epithelial A549; assay: as above; assay type: cell-based; settings: Table 12
Description: as §1

S. aureus 29213 = assay: microbroth dilution MIC; assay type: cell-based, Staphylococcus aureus; settings: Table 15
[13] = tested on: Staphylococccus simulans 11631; assay: microbroth dilution MIC; assay type: cell-based, Staphylococcus simulans; settings: Table 15
S. aureus ATCC 6583P = assay: MIC with and without double stranded DNA; assay type: cell-based, Staphylococcus aureus
[14] = tested on: Streptococcus pneumoniae ATCC 70676; assay: microbroth dilution MIC; assay type: cell-based; settings: Table 15
[15] = tested on: Staphylococcus aureus ATCC 33591 (MRSA); assay: microbroth dilution MIC; assay type: cell-based; settings: Table 15
[16] = tested on: DNA synthesis in Bacillus subtilis; assay: macromolecular synthesis whole cell assay, [3H]thymidine incorporation; assay type: cell-based; settings: for % [3H]thymidine (DNA synthesis) incorporation of that of the untreated culture: 1×MIC
[17] = tested on: Staphylococccus aureus 27734; assay: microbroth dilution MIC; assay type: cell-based, Staphylococcus aureus; settings: Table 15
[18] = tested on: Listeria monocytogenes 19115; assay: microbroth dilution MIC; assay type: cell-based; settings: Table 15
[19] = DNA +, 20 micrograms per well of sheared salmon sperm DNA

In the case of kakadumycin A, the “effect on RNA synthesis (in words)” value [1] is reported as “significantly inhibited”, the “% [3H]uridine (RNA synthesis) incorporation of that of the untreated culture” value ([1]; 5 min) is reported as 42% and the “% [3H]uridine (RNA synthesis) incorporation of that of the untreated culture” value ([1]; 10 min) is reported as 38%. The “MIC Streptococcus pneumoniae ATCC 49619” value [2] was <0.0325 micrograms/ml, the “MIC Staphylococcus epidermidis ATCC 12228” value (S. epidermis 12228) was 0.125 micrograms/ml and the “MIC Enterococcus faecalis VRE, ATCC 51299” value [3] was 0.062 micrograms/ml. The “MIC Staphylococcus aureus GISA, ATCC 700787” value [4] was 0.5 micrograms/ml, the “MIC Streptococcus pneumoniae ATCC 70674” value [5] was <0.0325 micrograms/ml and the “MIC B. subtilis 1A757” value (B. subtilis 1A757; [19]) was 4 micrograms/ml. The “MIC B. subtilis 1A757” value (B. subtilis 1A757; DNA −) was 0.0625 micrograms/ml, the “MIC Shigella dysenteriae ATCC 11835” value [6] was 4.0 micrograms/ml and the “effect on cell wall synthesis (in words)” value [7] was “to a lesser extent”. For the same substance, the “% [3H]N-acetyl glucosamine (Cell wall synthesis) incorporation of that of the untreated culture” value ([7]; 5 min) was 65%, the “% [3H]N-acetyl glucosamine (Cell wall synthesis) incorporation of that of the untreated culture” value ([7]; 10 min) was 55% and the “MIC Enterococcus faecalis ATCC 29212” value (E. faecalis 29212) was 0.062 micrograms/ml. For the same substance, the “MIC Listeria monocytogenes ATCC 19114” value [8] was 0.25 micrograms/ml, the “MIC Enterococcus faecium ATCC 49624” value (E. faecium 49624) was 0.062 micrograms/ml and the “effect on protein synthesis (in words)” value [9] was “to a lesser extent”. The “% [3H]amino acid mixture (Protein synthesis) incorporation of that of the untreated culture” value ([9]; 5 min) was 71%, the “% [3H]amino acid mixture (Protein synthesis) incorporation of that of the untreated culture” value ([9]; 10 min) was 53% and the “IC50 Human Primary Mammary Epithelial HMEC” value [10] was 0.009 micrograms/ml. For the same substance, the “IC50 Human Cervical Cancer Epthelial ME180” value [11] was 0.024 micrograms/ml, the “IC50 Human Lung Cancer Epithelial A549” value [12] was 0.270 micrograms/ml and the “MIC Staphylococcus aureus ATCC 29213” value (S. aureus 29213) was 0.25 micrograms/ml. The “MIC Staphylococcus simulans ATCC 11631” value [13] was 0.25 micrograms/ml, the “MIC S. aureus ATCC 6583P” value (S. aureus ATCC 6583P; [19]) was 16 micrograms/ml and the “MIC S. aureus ATCC 6583P” value (S. aureus ATCC 6583P; DNA −) was 0.25 micrograms/ml. For the same substance, the “MIC Streptococcus pneumoniae ATCC 70676” value [14] was <0.0325 micrograms/ml, the “MIC Staphylococcus aureus MRSA, ATCC 33591” value [15] was 0.5 micrograms/ml and the “effect on DNA synthesis (in words)” value [16] was “no effect”. The “% [3H]thymidine (DNA synthesis) incorporation of that of the untreated culture” value ([16]; 5 min) was 96%, the “% [3H]thymidine (DNA synthesis) incorporation of that of the untreated culture” value ([16]; 10 min) was 112% and the “MIC Staphylococcus aureus ATCC 27734” value [17] was 0.125 micrograms/ml. The “MIC Listeria monocytogenes ATCC 19115” value [18] was 0.25 micrograms/ml and the “concentration causing detectable lysis of human red blood cells” value (human red blood cells) was > 80 micrograms/ml.
